From PMC4336329 (PLoS ONE, 2015)
Out of some 310,000 compounds screened, about 14,000 (4.5%) showed an effect of 50% or more. The effect is printed as a negative number. Some of the results follow.

The molecules below were run against human ether-à-go-go-related gene (hERG) potassium channel (human, UniProt Q12809) (assay: primary screen, population patch clamp on CHO cells stably expressing hERG).
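Further: peak tail current of the secondary pulse compared with the same well before compound.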

Sequence of human ether-à-go-go-related gene (hERG) potassium channel (Q12809 whole entry, looked up): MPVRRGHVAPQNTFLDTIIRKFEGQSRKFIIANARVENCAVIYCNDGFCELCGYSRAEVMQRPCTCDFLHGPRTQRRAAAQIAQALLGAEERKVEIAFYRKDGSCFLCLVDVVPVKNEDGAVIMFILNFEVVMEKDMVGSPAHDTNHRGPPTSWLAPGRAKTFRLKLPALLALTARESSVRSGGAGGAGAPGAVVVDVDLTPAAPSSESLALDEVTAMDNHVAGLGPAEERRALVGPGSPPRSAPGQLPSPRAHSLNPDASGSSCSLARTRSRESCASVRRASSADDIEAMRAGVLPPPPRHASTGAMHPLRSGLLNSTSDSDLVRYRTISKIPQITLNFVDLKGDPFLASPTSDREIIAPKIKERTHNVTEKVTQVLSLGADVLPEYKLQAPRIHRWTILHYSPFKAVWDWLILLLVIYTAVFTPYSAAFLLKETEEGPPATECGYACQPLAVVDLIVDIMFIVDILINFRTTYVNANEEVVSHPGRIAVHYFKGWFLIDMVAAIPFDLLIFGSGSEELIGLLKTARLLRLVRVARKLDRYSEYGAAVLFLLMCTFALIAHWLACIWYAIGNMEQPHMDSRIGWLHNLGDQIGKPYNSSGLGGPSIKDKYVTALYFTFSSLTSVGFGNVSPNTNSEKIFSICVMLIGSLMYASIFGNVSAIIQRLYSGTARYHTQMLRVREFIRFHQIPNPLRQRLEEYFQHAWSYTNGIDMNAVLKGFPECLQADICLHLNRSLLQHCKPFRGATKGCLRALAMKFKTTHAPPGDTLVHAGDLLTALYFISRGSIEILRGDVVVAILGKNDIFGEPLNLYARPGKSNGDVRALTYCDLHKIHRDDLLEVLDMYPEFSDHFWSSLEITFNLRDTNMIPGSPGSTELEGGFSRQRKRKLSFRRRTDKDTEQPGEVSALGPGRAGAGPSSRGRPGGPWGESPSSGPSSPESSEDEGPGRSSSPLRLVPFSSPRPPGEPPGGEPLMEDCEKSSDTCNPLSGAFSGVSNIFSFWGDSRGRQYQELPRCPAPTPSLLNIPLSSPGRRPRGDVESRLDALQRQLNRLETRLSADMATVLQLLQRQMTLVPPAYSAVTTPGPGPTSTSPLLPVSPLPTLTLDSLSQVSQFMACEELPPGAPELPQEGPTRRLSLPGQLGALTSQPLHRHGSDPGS

Row | SMILES | hERG current change (%, negative = inhibition) at 10uM [%]
1 | O=C(COc1cccc2cccnc12)Nc1cccc(S(=O)(=O)N2CCCC2)c1 | -36.4
2 | CC/C(=N\NC(=O)CSCc1ccccc1Cl)c1ccc2c(c1)OCCO2 | 13
3 | C/C(CCc1ccccc1)=N\NC(=O)c1ccccc1[N+](=O)[O-] | 21.2
4 | COCCN(C(=O)COC(=O)Cc1coc2cc(C)ccc12)c1c(N)n(Cc2ccccc2)c(=O)[nH]c1=O | -13.3
5 | COc1ccc(S(=O)(=O)N2CCCC(C(=O)NCc3ccccn3)C2)cc1Cl (stereo not shown) | -15.1
6 | CC(C)n1nnnc1SCC(=O)NCc1ccc2c(c1)OCO2 | 4.63
7 | CN1C(C(=O)NCc2cccc(Br)c2)CC2Cn3c(nc4cc5ccccc5cc43)C21 (stereo not shown) | -62
8 | Cc1ccc(CNC(=O)c2cc3c(=O)n(C)c4ccccc4c3n2C)o1 | -7.44
9 | CN(Cc1cccc(Cl)c1Cl)C(=O)c1cccc(S(=O)(=O)N2CCN(Cc3ccccc3)CC2)c1 | 5.42
10 | Cc1ccc(S(=O)(=O)N2CCCCC2)c2nsnc12 | -54.9
11 | O=C(CN1CCN(C(=O)CNC(=O)c2ccc3c(c2)OCO3)CC1)Nc1cccc(F)c1 | -20.7
12 | Cc1ccc(-c2nc3ncccc3o2)cc1NC(=O)C(C)C | 14.9
13 | CCOc1ccc(OCC)c(S(=O)(=O)n2cc(C)nc2CC)c1 | 65.8
14 | CC(=O)NC(Cc1ccccc1)C(C)=O (stereo not shown) | 3.21
15 | COCCCNC(=O)/C=C/c1ccc(Cl)cc1Cl | -12.2
16 | COc1ccc(/C=N/NC(=O)c2ccc(CN3C(=O)c4cccc5cccc3c45)cc2)cc1O | 4.73
17 | O=C(Nc1cccc(S(=O)(=O)Nc2ccccc2F)c1)c1ccc2ccccc2n1 | 2.06
18 | CCN1/C(=c2/s/c(=C3/C(=O)N(c4ccccc4)N=C3C)n(CC)c2=O)C=Cc2ccccc21 | -8.31
19 | CCCc1nn(C)c2c1C(c1cccnc1)C(C#N)=C(N)O2 (stereo not shown) | 11.8
20 | COc1ccc(OC)c(NC(=O)c2ccc3c(c2)CCN3S(C)(=O)=O)c1 | 4.31
21 | COc1ccccc1NS(=O)(=O)c1cccc(C(=O)N/N=C(\C)c2ccc3c(c2)OCCO3)c1 | -7.15
22 | O=C(COC(=O)CCC(=O)c1ccccc1)NNC(=O)c1ccc(Cl)cc1 | -2.27

Row | SMILES | hERG current change (%, negative = inhibition) at 10uM [%]
23 | CCCC(=O)Nc1nc(C)c(C(C)=O)s1 | -0.293
24 | Cc1ccn(C(=O)c2cc3c(C)nn(-c4ccccc4)c3s2)n1 | 14.5
25 | S=c1nccc(-c2cc(Cl)sc2Cl)[nH]1 | -4.38
26 | CCOC(=O)c1cc2c(=O)[nH]c(C(Cl)(Cl)Cl)nc2o1 | 9.59
27 | COc1ccc(NC(=O)CCSc2nc(C)cs2)cc1 | 11.6
28 | O=C(O)C1CC(c2ccccc2)=Nc2ccccc2S1 (stereo not shown) | 1.43
29 | COc1ccc(-c2nnc(SCC(=O)Nc3ccc4c(c3)OCCO4)n2N)cc1OC | 4.82
30 | CC(C)c1ccc(-c2nc(N3CCCCC3)[nH]c(=O)c2C#N)cc1 | 4.05
31 | O=C(COc1ccc(Br)cc1Cl)NC(=S)Nc1ccccn1 | 22.8
32 | CCC(=O)Nc1c(-c2ccc(C)cc2)c(=O)c2ccccc2n1C | 4.53
33 | Cc1ccc(NC(=O)CSCC(=O)N(C)CC(=O)Nc2cccc(F)c2)cc1 | -44.6
34 | O=C(CCl)N1N=C(c2cccs2)CC1c1ccco1 (stereo not shown) | -2.08
35 | CCOc1ccc(-c2[nH]ncc2-c2ccc(OC)c(OC)c2)c(O)c1 | -2.9
36 | CC(NC(=O)CCNC(=O)c1ccco1)c1ccc(F)cc1 (stereo not shown) | 12.3
37 | O=C1CCC(C(=O)N2CCc3ccccc3C2)CN1CCCN1CCOCC1 (stereo not shown) | 7.89
38 | COc1cccc(/C=N/n2c(-c3cccs3)n[nH]c2=S)c1 | 10.6
39 | C/C(=N\N1CCCCC1c1cccnc1)c1c(O)n(C2CCCCC2)c(=S)[nH]c1=O (stereo not shown) | 0.0734
40 | C/C(=N\Nc1c([N+](=O)[O-])c(C)nn1C)c1ccc(F)cc1F | 2.54
41 | O=C(COc1ccc(Cl)cc1)Nc1nnc(-c2ccc3c(c2)CCCC3)o1 | 17.1
42 | O=C(NC1CCN(C(=O)NCc2ccccc2)CC1)c1cccc(F)c1 | 0.922
43 | COc1ccc(Cc2noc(CN3CCNC(=O)CC3)n2)cc1OC | 6.36
44 | O=[N+]([O-])c1cccc(-c2ccc(/C=N/Nc3nc(N4CCCCC4)nc(N4CCCCC4)n3)o2)c1 | 8.33

Row | SMILES | hERG current change (%, negative = inhibition) at 10uM [%]
45 | O=C(NCc1ccc(Cl)cc1)C1CCC(=O)N(C2CCCCCC2)C1 (stereo not shown) | -17
46 | CCCn1nnc(NC(=O)/C=C/c2cc(Br)ccc2OC)n1 | 6.21
47 | O=C1c2ccccc2C(=O)N1CN(C(=O)COc1ccccc1)c1ccccc1 | 4.99
48 | Cc1cnc(CNC(=O)C2CCC(=O)N(Cc3ccc(Cl)cc3)C2)[nH]1 (stereo not shown) | 18.9
49 | O=S(=O)(c1ccc(Br)cc1)c1nc(-c2ccccc2)oc1NCCN1CCOCC1 | 8.43
50 | c1ccc(Cn2c(SCc3nc4ccccc4s3)nnc2-c2ccco2)cc1 | -34.1
51 | COc1ccc(C)cc1S(=O)(=O)Nc1ccc2c(c1)OCCO2 | 17.6
52 | Cc1ccc(C2(c3noc(CN(C)CCCN4CCOCC4)n3)CCCC2)cc1 | -33.9
53 | COC(=O)/C=c1/sc2nc3ccccc3n2c1=O | 3.38
54 | Cc1cccc(N/N=C/c2ccc(C)s2)c1 | 19.7
55 | O=C(COC(=O)[C@@H]1CCCN1S(=O)(=O)c1ccc(Cl)cc1)NCC(F)(F)F | 11.7
56 | Cc1ccc(NC(=O)COc2ccccc2C(=O)NCc2ccccc2)cc1 | -31.1
57 | COc1ccc(-c2ccc(N)cn2)cn1 | 12.5
58 | COC(=O)c1ccc(-n2c(C)cc(C(=O)COC(=O)CC3Sc4ccccc4NC3=O)c2C)cc1 (stereo not shown) | 28.5
59 | CCCC(c1nnnn1Cc1cccs1)N1CCN(C2CCCC2)CC1.Cl (stereo not shown) | -29
60 | CCN1C(=O)C2(C(C(=O)c3cc4ccccc4o3)=C(O)C(=O)N2CCCN2CCOCC2)c2ccccc21 (stereo not shown) | 15.3
61 | COc1cc(C2C(C#N)=C(N)Oc3cc(C)oc(=O)c32)ccc1OC(=O)N1CCOCC1 (stereo not shown) | -4.07
62 | O=C(O)c1ccc(/C=C2\SC(=S)N(NC(=O)c3ccc(Br)cc3)C2=O)cc1 | 9.25
63 | CS(=O)(=O)NN1C(=O)c2ccccc2NC1c1ccccc1 (stereo not shown) | 12.8
64 | O=P(c1ccccc1)(c1ccccc1)C(c1ccco1)N1CCOCC1 (stereo not shown) | 9.93
65 | Cc1ccc(CS(=O)(=O)c2ccc(C(=O)N3CCN(c4ccccn4)CC3)cc2[N+](=O)[O-])cc1 | -43.9
66 | CC1CC(C)CN(C(=O)c2ccc(Br)c(S(=O)(=O)N3CCOCC3)c2)C1 (stereo not shown) | -26.6

Row | SMILES | hERG current change (%, negative = inhibition) at 10uM [%]
67 | COc1cccc(CN(C)CC2CCCN(CCc3ccc(Cl)cc3)C2)c1OC (stereo not shown) | -74.5
68 | CCCc1nn(C)c(C(=O)Nc2cccc(C)c2)c1Cl | 15.5
69 | O=C(Nc1ccccc1C(=O)NCc1ccccc1)c1ccco1 | -17
70 | Cc1cc([N+](=O)[O-])nn1Cc1c(F)c(F)c(F)c(F)c1F | -5.31
71 | CCC(NC(=O)CNC(=O)CNC(=O)c1ccc(Cl)cc1Cl)c1ccc(C)cc1 (stereo not shown) | 22.2
72 | COc1ccc2[nH]c3c(=S)nc[nH]c3c2c1 | 27.3
73 | O=C(O)C1CCCCC1C(=O)Nc1ccccn1 (stereo not shown) | 13.8
74 | Nc1nc(N2CCOCC2)nc(N(c2ccccc2)c2ccccc2)n1 | 1.42
75 | CCOC(=O)CN1C(=O)C(=O)N(Cc2c(Cl)cccc2Cl)C1=O | 18.4
76 | COC(=O)c1cc(COc2ccc3c4c(c(=O)oc3c2)CCCC4)c(C)o1 | -2.59
77 | Cc1cccc(CCNC(=O)CCc2c(C)nc3ncnn3c2C)c1 | -31.7
78 | CC(C)c1ccc(NS(=O)(=O)c2ccc(Cl)nc2)cc1 | -4.03
79 | COc1ccc(OCC(=O)NNC(=O)C(=O)Nc2ccc(C)cc2)cc1 | 11.4
80 | COc1ccccc1NC(=O)C(C)OC(=O)C1CCC(C(C)(C)C)CC1 (stereo not shown) | 7.47
81 | COc1ccc(CN2CCN(c3ncccn3)CC2)c(C)c1C | -35.9
82 | COc1ccc2cc(C)c3nnc(SCC(=O)Nc4nc(-c5ccc(F)cc5)cs4)n3c2c1 | -1.62
83 | CCCSc1ccc2nc(NC(=O)OC)[nH]c2c1 | 11
84 | CCC(Sc1nnc2c3ccccc3n(CC)c2n1)C(=O)Nc1sc2c(c1C#N)CCCC2 (stereo not shown) | -6.77
85 | CCOC(=O)c1cc2occc2n1CC(=O)NCCOC | -2.25
86 | CCCc1cc(N2CCCC(C(=O)Nc3c(OC)cccc3OC)C2)n2ncnc2n1 (stereo not shown) | -10.7
87 | Cc1nc2sccn2c(=O)c1Br | 15.4
88 | O=C(Cc1c[nH]c2ccccc12)N/N=C/c1cccc(F)c1 | 4.27
